Experimental data published in the supplement of paper PMC10126150.
Sequences with one replicate were seen in a single cluster, so their values are uncertain.

Test system: ATP
Test: switch fluorescence ratio, 500 uM ATP over buffer (Cy3 cluster intensity, sum of 5 cycles each) (fold (ratio)); higher = stronger signal-on switching upon ATP binding; sequences stand for … in TCGTCGGCAGCGTCAGATGTGTATAAGAGACAGTTTTTTTTTTTTTTTTTTTTTTTTT…TC
Details: aptamer strand: ATP DNA aptamer (quencher-CACCTGGGGGAGTATTGCGGAGGAAGG + anchor), 100 nM annealed; ATP concentration: 500 uM; one replicate
How it was run: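 Values give the fluorescence ratio for each switch-domain sequence, averaged from per-cluster ratios of summed target-cycle to summed buffer-cycle Cy3 intensity. The Cy3-labelled switching-strand clusters sat on a modified Illumina MiSeq flow-cell, were annealed to 100 nM quencher-labelled ATP aptamer, and were imaged in selection buffer, then after 15 min with 500 uM ATP at 22 °C. Five cycles ran with NaOH stripping and re-annealing between them, and clusters outside 100-1000 RFU were excluded.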
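Note: ATP exposure 15 min at 22 °C before imaging.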

Which switch fluorescence ratio does the source give for ATGAAATTGG here?
The switch fluorescence ratio was 1.03.

How did the switch fluorescence ratio turn out when ATGAACAACA was run?
Its switch fluorescence ratio is 1.06.

ATGAACAGTC was tested. Which switch fluorescence ratio did it give?
Its switch fluorescence ratio is 0.979.

How did the switch fluorescence ratio turn out when ATGAACGGTA was run?
Its switch fluorescence ratio is 0.976.

ATGAACTTG was tested. Which switch fluorescence ratio did it give?
Its switch fluorescence ratio is 1.07.

With ATGAAGCAGT as the sequence, how does the switch fluorescence ratio read?
Its switch fluorescence ratio is 1.44.

ATGAATAAT was tested. Which switch fluorescence ratio did it give?
Its switch fluorescence ratio is 1.02.

ATGAATGGG was tested. Which switch fluorescence ratio did it give?
Its switch fluorescence ratio is 0.963.

ATGAATTCGA was tested. Which switch fluorescence ratio did it give?
Its switch fluorescence ratio is 0.992.

ATGACCACGT was tested. Which switch fluorescence ratio did it give?
The switch fluorescence ratio was 1.05.

ATGACTAGCT was tested. Which switch fluorescence ratio did it give?
Its switch fluorescence ratio is 1.02.

For ATGACTCCAC, which switch fluorescence ratio is on record?
The switch fluorescence ratio was 1.98.

How did the switch fluorescence ratio turn out when ATGACTCCGG was run?
Its switch fluorescence ratio is 1.11.

With ATGACTGGTG as the sequence, how does the switch fluorescence ratio read?
The switch fluorescence ratio was 1.03.

Which switch fluorescence ratio does the source give for ATGAGAACCT here?
The switch fluorescence ratio was 1.87.

Which switch fluorescence ratio does the source give for ATGAGACTC here?
Its switch fluorescence ratio is 0.988.

For ATGAGAGCCG, which switch fluorescence ratio is on record?
Its switch fluorescence ratio is 1.

How did the switch fluorescence ratio turn out when ATGAGATTTC was run?
The switch fluorescence ratio was 0.999.

Which switch fluorescence ratio does the source give for ATGAGCCCGA here?
The switch fluorescence ratio was 0.995.

For ATGAGCCGTG, which switch fluorescence ratio is on record?
The switch fluorescence ratio was 1.02.

For ATGAGCTTCA, which switch fluorescence ratio is on record?
The switch fluorescence ratio was 1.01.

For ATGAGGACG, which switch fluorescence ratio is on record?
The switch fluorescence ratio was 1.01.

How did the switch fluorescence ratio turn out when ATGAGGCGGA was run?
Its switch fluorescence ratio is 0.943.

Which switch fluorescence ratio does the source give for ATGATAACAT here?
The switch fluorescence ratio was 0.98.

How did the switch fluorescence ratio turn out when ATGATCATGC was run?
The switch fluorescence ratio was 0.986.

How did the switch fluorescence ratio turn out when ATGATCATTG was run?
The switch fluorescence ratio was 0.974.

With ATGATCTATG as the sequence, how does the switch fluorescence ratio read?
Its switch fluorescence ratio is 0.973.

For ATGATCTCGC, which switch fluorescence ratio is on record?
The switch fluorescence ratio was 0.996.

For ATGATGATCT, which switch fluorescence ratio is on record?
The switch fluorescence ratio was 1.01.

ATGATGCTAT was tested. Which switch fluorescence ratio did it give?
The switch fluorescence ratio was 1.03.

For ATGATGTCAT, which switch fluorescence ratio is on record?
Its switch fluorescence ratio is 1.02.

ATGATGTCGA was tested. Which switch fluorescence ratio did it give?
The switch fluorescence ratio was 0.927.

ATGATTTTAC was tested. Which switch fluorescence ratio did it give?
The switch fluorescence ratio was 1.05.

With ATGCAAAAGT as the sequence, how does the switch fluorescence ratio read?
Its switch fluorescence ratio is 1.07.

Which switch fluorescence ratio does the source give for ATGCAAAATG here?
The switch fluorescence ratio was 1.53.

With ATGCAAATTT as the sequence, how does the switch fluorescence ratio read?
Its switch fluorescence ratio is 1.02.

With ATGCAACCTG as the sequence, how does the switch fluorescence ratio read?
The switch fluorescence ratio was 1.05.

For ATGCAAGTGC, which switch fluorescence ratio is on record?
Its switch fluorescence ratio is 1.2.

With ATGCAATGT as the sequence, how does the switch fluorescence ratio read?
The switch fluorescence ratio was 1.12.

With ATGCAATTGG as the sequence, how does the switch fluorescence ratio read?
The switch fluorescence ratio was 1.07.

With ATGCACAGTG as the sequence, how does the switch fluorescence ratio read?
The switch fluorescence ratio was 1.07.

With ATGCACTCGC as the sequence, how does the switch fluorescence ratio read?
Its switch fluorescence ratio is 1.

For ATGCAGGCAT, which switch fluorescence ratio is on record?
The switch fluorescence ratio was 0.997.

ATGCAGGCCA was tested. Which switch fluorescence ratio did it give?
Its switch fluorescence ratio is 1.16.

For ATGCAGGTGA, which switch fluorescence ratio is on record?
Its switch fluorescence ratio is 1.2.

ATGCATAAAA was tested. Which switch fluorescence ratio did it give?
The switch fluorescence ratio was 1.02.

Which switch fluorescence ratio does the source give for ATGCATCCAA here?
The switch fluorescence ratio was 1.03.

How did the switch fluorescence ratio turn out when ATGCATGTCA was run?
Its switch fluorescence ratio is 1.04.

ATGCATGTGT was tested. Which switch fluorescence ratio did it give?
Its switch fluorescence ratio is 1.07.

Which switch fluorescence ratio does the source give for ATGCCGATAT here?
The switch fluorescence ratio was 1.04.

How did the switch fluorescence ratio turn out when ATGCCGGTAC was run?
Its switch fluorescence ratio is 1.02.

Which switch fluorescence ratio does the source give for ATGCCTCCCT here?
The switch fluorescence ratio was 0.999.

ATGCCTGACC was tested. Which switch fluorescence ratio did it give?
Its switch fluorescence ratio is 1.17.

With ATGCCTGTTA as the sequence, how does the switch fluorescence ratio read?
Its switch fluorescence ratio is 0.982.

ATGCCTTGGG was tested. Which switch fluorescence ratio did it give?
The switch fluorescence ratio was 0.961.

Which switch fluorescence ratio does the source give for ATGCGAAATT here?
Its switch fluorescence ratio is 0.977.

With ATGCGAGGAC as the sequence, how does the switch fluorescence ratio read?
The switch fluorescence ratio was 1.01.

ATGCGCTTGA was tested. Which switch fluorescence ratio did it give?
Its switch fluorescence ratio is 1.07.

Which switch fluorescence ratio does the source give for ATGCGTAAAC here?
The switch fluorescence ratio was 1.06.

ATGCGTATAG was tested. Which switch fluorescence ratio did it give?
The switch fluorescence ratio was 0.978.

With ATGCGTATAT as the sequence, how does the switch fluorescence ratio read?
The switch fluorescence ratio was 1.03.

ATGCGTGGAC was tested. Which switch fluorescence ratio did it give?
Its switch fluorescence ratio is 0.939.

For ATGCGTTTAG, which switch fluorescence ratio is on record?
The switch fluorescence ratio was 0.997.

ATGCTACCAG was tested. Which switch fluorescence ratio did it give?
The switch fluorescence ratio was 1.04.

How did the switch fluorescence ratio turn out when ATGCTAGAG was run?
The switch fluorescence ratio was 0.958.

With ATGCTATGTC as the sequence, how does the switch fluorescence ratio read?
Its switch fluorescence ratio is 1.02.

With ATGCTCACTT as the sequence, how does the switch fluorescence ratio read?
Its switch fluorescence ratio is 1.01.

Which switch fluorescence ratio does the source give for ATGCTCTTCA here?
The switch fluorescence ratio was 1.03.

Which switch fluorescence ratio does the source give for ATGCTCTTTT here?
Its switch fluorescence ratio is 0.965.

ATGCTGAATT was tested. Which switch fluorescence ratio did it give?
The switch fluorescence ratio was 1.

ATGCTGACGT was tested. Which switch fluorescence ratio did it give?
The switch fluorescence ratio was 0.986.

For ATGCTGCCAC, which switch fluorescence ratio is on record?
Its switch fluorescence ratio is 1.02.

How did the switch fluorescence ratio turn out when ATGCTTCCTT was run?
Its switch fluorescence ratio is 1.09.

ATGCTTTTTC was tested. Which switch fluorescence ratio did it give?
Its switch fluorescence ratio is 0.979.

Which switch fluorescence ratio does the source give for ATGGAAAAAT here?
Its switch fluorescence ratio is 1.06.

ATGGAAAAGT was tested. Which switch fluorescence ratio did it give?
The switch fluorescence ratio was 1.01.

For ATGGAACGTT, which switch fluorescence ratio is on record?
Its switch fluorescence ratio is 0.984.

With ATGGACAAGA as the sequence, how does the switch fluorescence ratio read?
Its switch fluorescence ratio is 1.02.

How did the switch fluorescence ratio turn out when ATGGAGCTCG was run?
Its switch fluorescence ratio is 0.995.

Which switch fluorescence ratio does the source give for ATGGATGAGG here?
The switch fluorescence ratio was 1.02.

ATGGATTGAC was tested. Which switch fluorescence ratio did it give?
The switch fluorescence ratio was 1.05.

For ATGGCATGTG, which switch fluorescence ratio is on record?
The switch fluorescence ratio was 0.981.

With ATGGCATTTC as the sequence, how does the switch fluorescence ratio read?
Its switch fluorescence ratio is 0.991.

How did the switch fluorescence ratio turn out when ATGGCCAGGC was run?
The switch fluorescence ratio was 0.973.

ATGGCCCAAG was tested. Which switch fluorescence ratio did it give?
The switch fluorescence ratio was 0.979.

For ATGGCCGCAG, which switch fluorescence ratio is on record?
The switch fluorescence ratio was 1.15.

With ATGGCCTGGT as the sequence, how does the switch fluorescence ratio read?
Its switch fluorescence ratio is 1.02.

How did the switch fluorescence ratio turn out when ATGGCGCAGG was run?
The switch fluorescence ratio was 0.963.

With ATGGCTGGTG as the sequence, how does the switch fluorescence ratio read?
Its switch fluorescence ratio is 1.01.

For ATGGGCCATA, which switch fluorescence ratio is on record?
The switch fluorescence ratio was 0.99.

Which switch fluorescence ratio does the source give for ATGGGCGGAA here?
The switch fluorescence ratio was 1.02.

For ATGGGGCGGG, which switch fluorescence ratio is on record?
The switch fluorescence ratio was 0.99.

For ATGGGTGTG, which switch fluorescence ratio is on record?
The switch fluorescence ratio was 0.977.

Which switch fluorescence ratio does the source give for ATGGGTTCCT here?
The switch fluorescence ratio was 0.986.

Which switch fluorescence ratio does the source give for ATGGTAAATG here?
The switch fluorescence ratio was 0.962.

How did the switch fluorescence ratio turn out when ATGGTAACCA was run?
The switch fluorescence ratio was 0.969.

How did the switch fluorescence ratio turn out when ATGGTATACG was run?
Its switch fluorescence ratio is 1.09.

Which switch fluorescence ratio does the source give for ATGGTATTAA here?
The switch fluorescence ratio was 1.05.

Which switch fluorescence ratio does the source give for ATGGTCAAGA here?
Its switch fluorescence ratio is 0.967.

With ATGGTCTGCA as the sequence, how does the switch fluorescence ratio read?
Its switch fluorescence ratio is 0.945.
